Laboratory results from patent publication US20190307771A1, “METHODS AND COMPOSITIONS FOR THE TREATMENT OF CANCER AND METABOLIC DISEASES” (THE REGENTS OF THE UNIVERSITY OF CALIFORNIA, priority 2016, published 2019).

What was measured:
3′UTR of HDAC1 = assay: psiCHECK2-HDAC1 3′UTR luciferase assay in HCT116 cells; format: cell-based; details: miR-22 mimics 20 nM, 24 hours after transfection
Description: Cells were also transfected with either miR-22 mimics or miR-22 inhibitors. Scramble controls were used as negative controls.
To establish miR-22 inhibition of HDAC1, in vitro functional assays were conducted using miR-22 mimics and inhibitors. psiCHECK2-HDAC1 containing the 3′UTR of HDAC1 was constructed and co-transfected with either miR-22 mimics or inhibitors into HCT116 cells. […] Together, HDAC1 is a novel miR-22 direct target, and miR-22 inhibits multiple protein deacetylases in colon cancer cells
Renilla luciferase activity was standardized to firefly luciferase activity.

[1] = system: HDAC1, HDAC4, SIRT1, cyclin A2 (CCNA2); assay: Western blot of protein deacetylases and cyclin A2 in HCT116 cells; format: cell-based; details: colon HCT116 cells; CDCA treatment or miR-22 mimic transfection
Description: HCT116 cells were transfected with either an miR-22 mimic or a scramble control, and 48 hours later the protein levels of HDAC4, SIRT1, and cyclin A2 were measured (FIG. 3B). The expression of all three proteins was reduced by treatment with the miR-22 mimic.
Western blot and immunoprecipitation were performed as described previously^22. Specific antibodies used included anti-NUR77, RARβ, SIRT1, β-actin, and IgG (Santa Cruz Biotechnology, Santa Cruz, Calif.), phospho-JNK1/2, total JNK1/2, cleaved caspase3, HDAC1 and HDAC4 (Cell Signaling Technology, Beverly, Mass.), and CCNA2 (Novus Biologicals, Littleton, Colo.). To detect protein acetylation of NUR77 and RARβ, cell lysates (500 μg) were incubated with anti-NUR77, RARβ, or IgG antibody (1 μg), precipitated by adding Dynabeads (30 μl, Life Technologies, Carlsbad, Calif.), and probed with anti-Acetyl-lysine antibody (Cell Signaling Technology, Beverly, Mass.). To study the interaction between RARβ and NUR77, whole-cell lysates were precipitated with anti-RARβ or NUR77 antibody followed by Western blot using anti-NUR77 or RARβ antibody.

[2] = system: CYCLIN A2, HDAC1, HDAC4, SIRT1; assay: Protein levels in Huh7 liver cancer cells
NUR77 and RARβ [3] = assay: Induction and localization of NUR77 and RARβ in HCT116 cells; format: cell-based; details: 48 hours, RA 10 μM, butyrate 5 mM, SAHA 5 μM, EGF 32 nM
Description: Proteins were immunoprecipitated by anti-NUR77 or anti-RARβ antibodies, or IgG, followed by Western blot using anti-RARβ or anti-NUR77 antibodies.
To study the effect of miR-22 in induction of cytosolic NUR77 by RA/butyrate, adenoviral-delivery of miR-22 inhibitors tagged with green fluorescence (adeno-miR-22 inhibitor-GFP, Applied Biological Materials Inc, Richond, BC) were used to infect HCT116 cells. At 48 hours post adenoviral infection, cells were treated with RA (10 μM) plus butyrate (5 mM) or DMSO for 24 hours. […] Cells were mounted in ProLong® Gold Antifade Reagent with DAPI (4′,6-diamidino-2-phenylindole, Life Technologies, Carlsbad, Calif.) and imaged under Keyence BZ-9000 microscope.

NUR77 and RARβ [4] = assay: NUR77 and RARβ in Huh7 cells (immunoprecipitation, Western blot, staining)

Substance: miR-22 mimic: miR-22 mimics (Life Technologies), transfected at 20 nM (guide AAGCUGCCAGUUGAAGAACUGU; mimic duplex, passenger strand not given here)
- Inhibition of luciferase activity of psiCHECK2-HDAC1 (3′UTR of HDAC1): roughly 30%
- CYCLIN A2 levels [1]: repression of cyclin A2
- CYCLIN A2 levels [2]: repression of cyclin A2

Substance: EGF: epidermal growth factor, mitogen
- Induction and localization of NUR77 and RARβ (immunostaining) (NUR77 and RARβ [3]): induced nuclear NUR77, but not RARβ
- Nuclear NUR77 and cleaved caspase 3 (NUR77 and RARβ [4]): increased nuclear NUR77, but no cleaved caspase 3
